# Data published in PubChem BioAssay AID1461 (National Center for Advancing Translational Sciences (NCATS), 2008).
# Where “and” joins values, the source holds several entries; their conditions need not be identical. Equal entries are not always repeated. The whole screen tested about 220,000 compounds, of which about 2,300 (1%) were called active. This list was built around the results that the source calls inconclusive (neither active nor inactive); the mix of calls is not that of the screen. Calls follow the shape of the dose curve; as a rule, active = well fitted inhibition curve with a large enough effect; inconclusive = small, poorly fitted or top-dose-only effect, or effect the other way; inactive = no such curve, though single readings can be large or run the other way. A potency beside an inconclusive call is a rough fit, not a confirmed value.
# Target: Neuropeptide S receptor (Homo sapiens) (UniProt Q6W5P4)
# Test: qHTS Assay for Antagonists of the Neuropeptide S Receptor: cAMP Signal Transduction; also: nearly all actives have a fitted effect of over 50% in size
# Conditions: CHO-NPSR cells, cAMP TR-FRET, antagonist mode; activity change, negative = inhibition: at 38.3 µM (top of the series) unless noted
# % is scaled to controls: 0 for no effect and ±100 for the full control effect; potency is read from the fitted curve at half-maximal effect; tags tell the direction and shape of the fitted curve.
# Sequence of UniProt Q6W5P4 (Q6W5P4 whole entry, looked up): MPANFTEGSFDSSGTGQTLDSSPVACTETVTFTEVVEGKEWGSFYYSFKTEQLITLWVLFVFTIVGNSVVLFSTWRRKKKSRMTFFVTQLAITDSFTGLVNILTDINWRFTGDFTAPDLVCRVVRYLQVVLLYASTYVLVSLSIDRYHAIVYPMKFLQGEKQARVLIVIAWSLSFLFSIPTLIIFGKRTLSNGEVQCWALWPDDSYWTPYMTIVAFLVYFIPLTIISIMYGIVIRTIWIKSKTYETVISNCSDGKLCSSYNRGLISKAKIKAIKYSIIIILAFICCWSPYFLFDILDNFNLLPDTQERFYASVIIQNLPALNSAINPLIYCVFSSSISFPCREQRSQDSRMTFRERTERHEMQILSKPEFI
Structure (SMILES),"activity change, negative = inhibition",Potency
Cc1ccc2[nH]c3c(=O)n(CCCN4CCOCC4)cnc3c2c1,inactive: 6.34% [at 46.1 µM],
COC(=O)C1Sc2[nH]c(=O)sc2C(c2ccc(Cl)cc2)C1C(=O)OC (stereo not drawn),inactive: -5.91% [at 46.1 µM],
Cc1c(Cl)cccc1NC(=S)Nn1cnnc1,inactive: 3.62%,
O=C(/C=C/c1ccc(F)cc1)c1cc(Br)ccc1O,,"inconclusive: 12.6 µM [inhibitor, single point]"
Cc1cc(C)c2c(c1)/C(=N/NC(=O)c1ccc(O)cc1)CCC2,inactive: -26.3%,
CNc1ncnc2c1ncn2[C@@H]1O[C@H](CO)[C@H](O)[C@H]1O,inactive: 16.6% [at 46.1 µM],
O=C(C(Cc1ccccc1)NS(=O)(=O)c1cccc2cccnc12)N1CCc2ccccc21 (stereo not drawn),,"inconclusive: 12.6 µM [inhibitor, partial curve, poor fit]"
CCc1sc(C(C2C(=O)CC(C)(C)CC2=O)C2C(=O)CC(C)(C)CC2=O)cc1[N+](=O)[O-],,"inconclusive: 12.6 µM [activator, single point]"
COc1ccc(C(=O)Nc2cccc(-c3nc4ncccc4o3)c2C)cc1,,"inconclusive: 5.01 µM [inhibitor, single point]"
Fc1ccc(Sc2nc(-c3ccccc3)nnc2C(F)(F)F)cc1,,"inconclusive: 25.1 µM [inhibitor, single point]"
COc1ccccc1CNC(=O)C(C)c1ccc([N+](=O)[O-])cc1 (stereo not drawn),inactive: -11%,
Cc1ccc(S(=O)(=O)N(C)C)cc1NC(=S)N1CCc2ccccc21,inactive: -8.72%,
NNC(=O)c1cc(-c2ccccc2)sc1N,inactive: -0.219% [at 7.67 µM],
CN(C)c1ccc(N=Nc2nc3ccccc3n2C)cc1,,"inconclusive: 2.51 µM [inhibitor, single point]"
CCNc1nc(Oc2c(Cl)cccc2Cl)cc(C(F)(F)F)n1,,"inconclusive: 10 µM [inhibitor, partial curve]"
CC(=O)c1ccc(OC(=O)N(c2ccccc2)c2ccccc2)cc1,,"inconclusive: 12.6 µM [inhibitor, single point]"
O=C(Nc1ccccc1N1CCN(C(=O)c2ccc(Cl)cc2)CC1)c1ccc2c(c1)OCO2,,"inconclusive: 5.01 µM [inhibitor, partial curve]"
O=C(O)C/C(=C\c1ccc(N2CCOCC2)c([N+](=O)[O-])c1)c1nc2ccccc2s1,inactive: 4.08% [at 7.67 µM],
O=C(CSc1nccc(-c2cccs2)n1)Nc1ccccc1,,"inconclusive: 25.1 µM [activator, single point]"
O=c1oc(-c2cccs2)nc2c1cnn2-c1ccccc1,,"inconclusive: 10 µM [inhibitor, single point]"
O=C(NCc1ccco1)c1cccc2ccccc12,inactive: -15% [at 46.1 µM],
Cc1occc1C(=O)Nc1ccc2c(c1)CCC2,,"inconclusive: 15.8 µM [activator, single point]"
Cc1nc2sccn2c(=O)c1CCN1CCC(=C(c2ccc(F)cc2)c2ccc(F)cc2)CC1,,"inconclusive: 501 nM [inhibitor, full curve] and inconclusive: 20 µM [inhibitor, single point]"
CC1=C/C(=N\NC(=S)Nc2cccnc2)CC(C)(C)C1,,active: 1.26 µM
O=C1N(CC(=O)N2CCc3ccccc32)CCN1Cc1ccccc1Cl,,"inconclusive: 15.8 µM [inhibitor, single point]"

Structure (SMILES),"activity change, negative = inhibition",Potency
CC(C)(C)C1CCc2c(sc(NC(=O)C3CCCO3)c2C(N)=O)C1 (stereo not drawn),,"inconclusive: 10 µM [inhibitor, single point]"
COc1cc2[nH]c(=O)n(CCC(=O)NC3CCCC3)c(=O)c2cc1OC,inactive: 0.856% [at 46.1 µM],
Nc1c(N=Nc2ccccc2F)c(=O)[nH]n1-c1ccccc1,inactive: -26.9% [at 46.1 µM],
Cc1ccc(-c2nc3cc(NC(=O)C(C)C)ccc3o2)cc1,,"inconclusive: 5.01 µM [inhibitor, single point]"
COc1ccc(C2C(C(=O)N3CCOCC3)c3ccccc3C(=O)N2c2ccc(OC)cc2)cc1 (stereo not drawn),inactive: -10.9% [at 46.1 µM],
CCNC(=O)NC(=O)COC(=O)CCCSc1nc2ccccc2[nH]1,,"inconclusive: 3.16 µM [inhibitor, partial curve, poor fit]"
Cc1ccc(N2CCN(C(=O)c3ccccc3NC(=O)/C=C\C(=O)O)CC2)cc1,,"inconclusive: 20 µM [inhibitor, single point]"
N#CCN1CCC/C1=C\[N+](=O)[O-],,"inconclusive: 0.126 µM [inhibitor, full curve, poor fit]"
Cc1ccc(NC(=O)c2cc(N3C(=O)C4CC=CCC4C3=O)ccc2N2CCOCC2)cc1Cl (stereo not drawn),,"inconclusive: 10 µM [inhibitor, partial curve]"
O=C1c2ccccc2OC2(C=Cc3ccccc3O2)N1Cc1ccccc1 (stereo not drawn),,"inconclusive: 12.6 µM [inhibitor, single point]"
CCCCOc1ccccc1NC(=O)CC1Nc2ccccc2NC1=O (stereo not drawn),inactive: -41% [at 46.1 µM],
Clc1ccc(CSc2nnc(-c3c[nH]c4ccccc34)o2)cc1,,"inconclusive: 12.6 µM [inhibitor, single point]"
CCOC(=O)c1cc(-c2ccccc2)sc1NC(=O)C(C)OC(=O)c1cccnc1OCC (stereo not drawn),inactive: -34.6%,
CCn1ncc(C(=O)Nc2cccc(Cl)c2)c1C,inactive: -6.26%,
O=C(Cc1nnc(NC(=O)Nc2ccccc2F)s1)NCc1ccccc1,inactive: 12.2%,
CS(=O)(=O)Nc1ccc(C(=O)Nc2ccc3c(c2)OCCO3)cc1,,"inconclusive: 5.01 µM [inhibitor, single point]"
CCS(=O)(=O)N1CCN(Cc2nc3ccccc3c(=O)[nH]2)CC1,,"inconclusive: 25.1 µM [inhibitor, single point]"
O=C1c2c(O)ccc(O)c2C(=O)c2c(NCCNCCO)ccc(NCCNCCO)c21,,active: 10 µM
CCc1nc(SCC(=O)c2ccc(C)c(C)c2)n[nH]1,inactive: -11.1% [at 46.1 µM],
CCOC(=O)c1cnc(-n2nc(C)cc2C)nc1Nc1ccc(O)cc1,,"inconclusive: 2.51 µM [activator, partial curve]"
O=C(Nc1cccc2ncccc12)c1ccc(-c2ccc(Cl)cc2Cl)o1,,"inconclusive: 12.6 µM [inhibitor, single point]"
COc1cc(OC)cc(-c2cc3nc(C4CCN(C(=O)OC(C)(C)C)CC4)cc(=O)n3[nH]2)c1,,"inconclusive: 12.6 µM [inhibitor, partial curve]"
CCOC(=O)c1c(NC(=S)NCc2ccccc2)sc2c1CCN(C(=O)OCC)C2,,"inconclusive: 10 µM [activator, partial curve]"
Cc1ccc(-n2c(COc3cccc(C)c3)n[nH]c2=S)cc1,,"inconclusive: 10 µM [activator, partial curve]"
Cc1ccc(-n2nnnc2-c2nc3ccccc3s2)cc1,,"inconclusive: 20 µM [inhibitor, single point]"

Structure (SMILES),"activity change, negative = inhibition",Potency
COc1ccccc1OCC(=O)Nc1ccc(S(=O)(=O)N2CCCCCC2)cc1,,"inconclusive: 15.8 µM [inhibitor, partial curve]"
O=C(CCCn1c(=O)[nH]c2ccccc2c1=O)NC1CCCCCC1,,"inconclusive: 3.16 µM [inhibitor, partial curve, poor fit]"
CCOc1cc2c(cc1/C=C1/NC(=O)N(CC(=O)OC)C1=O)OCO2,inactive: -12.2%,
CCCCc1nc2ccccc2c(=O)n1NC(=O)c1c(O)c2c(n(CC(C)C)c1=O)CCCC2,,"inconclusive: 10 µM [inhibitor, partial curve]"
CCOC(=O)c1nnn(-c2nonc2N)c1COc1cc(C)c(Cl)c(C)c1,,"inconclusive: 25.1 µM [inhibitor, single point]"
O=C1CN(c2nc(-c3ccccc3)c3cc(Br)ccc3n2)c2ccccc2N1,,active: 6.31 µM
Cc1ccc(O)c(N=CC2=C(O)c3ccccc3C2=O)c1,,"inconclusive: 10 µM [activator, partial curve]"
COc1ccc(-c2cc(C(=O)Nc3cc(C)n(Cc4ccc(Cl)cc4)n3)no2)cc1OC,inactive: -3.72% [at 46.1 µM],
Fc1ccc(NC(=S)NC2CCN(Cc3ccccc3)CC2)cc1,inactive: 6.76%,
CCS(=O)(=O)n1nc(-c2ccc(C)cc2)nc1N,inactive: 1.69% [at 46.1 µM],
Cc1cc(C(=O)CN2C(=O)NC(c3ccccc3)(c3ccccc3)C2=O)c(C)n1Cc1ccco1,,"inconclusive: 7.94 µM [inhibitor, partial curve]"
COc1cccc(NC(=O)Cc2nnc(SCC(=O)c3ccccc3)n2C)c1,inactive: -8.62% [at 46.1 µM],
COC(=O)[C@@H]1[C@@H](C#N)C2(c3ccccc3-c3ccccc32)N(c2ccc(Cl)cc2)N1C#N,,active: 10 µM
CCn1nnnc1NC(=O)c1cc(Cl)c(OC)c(Cl)c1,inactive: -9.62%,
CCc1ccc(NC(=O)CSc2nc3cc(C(=O)OC)ccc3c(=O)n2Cc2ccco2)cc1,inactive: -0.691% [at 46.1 µM],
CNc1sc(C(=O)c2cccs2)c(N)c1-c1nc2ccccc2s1,,active: 3.16 µM
CCN1C=C(Cc2ccccc2C)C2=C(C1)C(c1ccccc1C)C(C#N)=C(N)O2 (stereo not drawn),inconclusive: -33.3% [inhibitor] [at 46.1 µM],
COc1ccc(-n2c(C)c(C(=O)O)c3cc(OC)c4ccccc4c32)cc1,,"inconclusive: 12.6 µM [inhibitor, single point]"
O=C(COC(=O)C1CCCN1C(=O)c1cccs1)c1ccccc1 (stereo not drawn),,"inconclusive: 3.16 µM [inhibitor, full curve, poor fit]"
CN(C)C(=O)/C(=C\c1cccc(Oc2ccccc2)c1)NC(=O)c1ccccc1,inactive: 21.2%,
CCN(C(=O)CC(C)C)c1nnc(Cn2nnc3ccccc32)s1,inactive: 6.7%,
COc1ccc(-n2nnnc2-c2nc3ccccc3s2)cc1,,"inconclusive: 12.6 µM [inhibitor, single point]"
COC(=O)c1cc(NC(=O)C2CC(=O)NC(=NCc3ccc(OC)cc3)S2)cc(C(=O)OC)c1 (stereo not drawn),inactive: -6.55%,
